No constants are given. Whether binding was seen depends on the method and setting. Binding seen in cells or lysates may run through a third protein. Some binding calls cover weakened binding; strength is not graded here.
Legend:
[1] = molecular target: FLAG-tagged wild-type Ephexin4 (murine) (UniProt Q3U5C8); experiment: co-IP; RhoG-GEF binding assay: 293T cells co-transfected; lysis and wash buffer additionally with 10 mM EDTA; FLAG-conjugated agarose beads, immunoblotting
[2] = molecular target: FLAG-tagged Ephexin4^E295A (murine) (UniProt Q3U5C8); experiment: as above

By UniProt entry, the sequences of proteins in these tests, tags left out. Where a name states a change or a piece, a line headed by the entry shows the natural chain unless it says otherwise.
UniProt Q3U5C8: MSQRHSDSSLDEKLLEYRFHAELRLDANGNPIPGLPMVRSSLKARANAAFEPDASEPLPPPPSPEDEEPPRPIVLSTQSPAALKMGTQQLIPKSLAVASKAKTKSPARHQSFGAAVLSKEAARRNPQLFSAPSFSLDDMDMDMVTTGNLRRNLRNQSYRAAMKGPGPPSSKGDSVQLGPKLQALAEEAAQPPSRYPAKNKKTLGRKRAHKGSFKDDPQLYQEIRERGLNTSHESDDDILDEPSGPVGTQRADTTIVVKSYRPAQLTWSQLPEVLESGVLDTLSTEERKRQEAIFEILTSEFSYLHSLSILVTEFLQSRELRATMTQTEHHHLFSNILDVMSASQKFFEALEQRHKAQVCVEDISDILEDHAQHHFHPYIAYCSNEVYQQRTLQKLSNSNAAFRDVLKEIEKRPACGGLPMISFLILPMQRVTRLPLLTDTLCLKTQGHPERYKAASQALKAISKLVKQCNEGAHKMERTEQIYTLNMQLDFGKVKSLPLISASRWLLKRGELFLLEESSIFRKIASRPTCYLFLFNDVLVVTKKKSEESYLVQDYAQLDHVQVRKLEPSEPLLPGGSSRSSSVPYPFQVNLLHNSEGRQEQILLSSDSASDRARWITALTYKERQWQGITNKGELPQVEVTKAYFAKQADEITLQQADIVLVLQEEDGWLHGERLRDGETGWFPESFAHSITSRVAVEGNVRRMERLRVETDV
UniProt P84095: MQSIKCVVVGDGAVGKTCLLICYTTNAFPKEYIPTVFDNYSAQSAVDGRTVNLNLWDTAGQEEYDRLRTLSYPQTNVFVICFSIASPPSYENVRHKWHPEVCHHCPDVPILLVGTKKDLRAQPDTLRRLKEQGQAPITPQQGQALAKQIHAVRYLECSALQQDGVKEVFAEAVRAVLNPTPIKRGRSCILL

- binding [1]: binds
- binding [2]: binds
Substance: GFP-RhoG (from UniProt P84095 1-191)
